Laboratory results reported in the supplement of paper PMC11417369.
± gives the standard deviation of the averaged measurements. This is one part of the list.

System: PfAP2-I AP2 domain 3 (GST-tagged)
Assay: gcPBM binding intensity (ln(normalized median fluorescence intensity)); higher = stronger DNA binding
Summary of the method: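 An Agilent 4 × 180k array of primer-extended double-stranded 36-bp intergenic genomic probes, with negative controls, was incubated for 1 h with GST-tagged P. falciparum DNA-binding domains expressed in E. coli. Alexa488 anti-GST antibody detected bound protein, scanned at 488 nm. Binding intensity is the highest Masliner-normalised natural-log median intensity across replicate spots of either probe orientation.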

Sequence	gcPBM binding intensity (ln)
TATAAAAAGCATAACACACACATGTCAATATATATA [CACACA_site1111]	8.12 ± 0.74
ATAGAACAGAAAAGGCGTACAATAATATGTAAACAA [XGTACX_site2828]	7.97 ± 0.36
AAAAAAAAAATATGTACACACATATATAATACATAA [CACACA_site1639]	7.88 ± 0.26
TTAAGTCCGTTAACAGTGCATTTTTTCTTTTATGTA [GTGCAC_site9867]	8.97 ± 0.45
AGAAAAGAGAAAAGTAGTACAAAGGATCATTTAAAA [XGTACX_site5294]	7.75 ± 0.47
ATTAAAAAAATATAAACACACAAAAAAAAAATATAC [CACACA_site1100]	8.09 ± 0.69
TAATGAAAAAATAAAAGAATAAATAAATAAATAAAT [TGCATGCA_negctrl_site130]	8.09 ± 0.85
ATTACATGATATATCACACACACATATAGATATATA [CACACA_site7352]	7.99 ± 0.59
GCTATTAATTTATAAGCACACAATATAAATATATAT [CACACA_site2251]	8.46 ± 0.057
TACACGTTCTACATTTGTACTTAATTTATACATAAG [XGTACX_site1579]	8.17 ± 0.37
TACGTCTTTTTTTTGGTGCATAATTTTTTTGTACAA	11.2 ± 0.44
AATTTTGTTAAAAGGACACACAATTCAATATATTAA [CACACA_site647]	7.69 ± 0.51
ATTTATTTAAACAAATCACACACAAATATATATACA [CACACA_site8622]	7.73 ± 0.35
TATATTAAAATATTCACACACTAACGTAAATCATTG [CACACA_site5520]	7.45 ± 0.52
TATGTCGACATTTAAAGTACAAAAAAAAAAAAAAAA [XGTACX_site8985]	8.12 ± 0.47
TAAAAATCCACAAGCACACAAATGTACATATATATA [CACACA_site2462]	8.25 ± 0.71
CATACATAGATATATACACACATACCTATAAATACA [CACACA_site6513]	7.95 ± 0.3
TATATATGTGTTATATACCCTTTTTTATATATTAAT [XGTACX_negctrl_site313]	7.76 ± 0.6
TATGAAAAGATATATACACACATAATAAAGGTATAT [CACACA_site7713]	7.76 ± 0.63
CATTATTATTAACATACACACGTGTTAAATACACCC [CACACA_site6118]	8.47 ± 0.63
ATTAAAACAAAATGTACACACATATCATTTAATGAC [CACACA_site6543]	7.72 ± 0.37
CTATTTCAATTTAGTGCACACATTTTAATTTATAAG [CACACA_site2040]	11.4 ± 0.49
ACATACACATATACATGTACATATATATATATATAT [XGTACX_site5082]	9.31 ± 0.97

Sequence	gcPBM binding intensity (ln)
TTTTAATCTTAATTATGTACATATAAAATGTGTATA [XGTACX_site7382]	7.71 ± 0.39
ATATTCATTAACCACACACACAAAAAAAATAAAATT [CACACA_site3801]	8.02 ± 0.41
ATATATGTATTTAATACACACAAAACTTTCATTCCA [CACACA_site3531]	7.9 ± 0.62
TTTTTAGAAAGACATGCATGTAATAAAAATAAATAA [TGCATGCA_site685]	7.8 ± 0.7
ATACATATATGCTTCTGTACACATAATTTATAAAAA [XGTACX_site7000]	8.43 ± 0.47
CATATGTCTTGAGATCGTACGTTATTTTTTTTATTT [XGTACX_site1381]	7.79 ± 0.56
AAAAATTATATATATATATATATATATATATGTATA [GTGCAC_negctrl_site488]	8.38 ± 0.52
TGGTAAATTTACCGTTGTACATTCATTTATAACATT [XGTACX_site8910]	7.72 ± 0.67
AAGAATATTAATATAAATAAGTAAATAAATAAATAA [CACACA_negctrl_site417]	7.82 ± 0.7
TATAAATTTAAAATGACACACACTAAAATTATTTAA [CACACA_site1239]	7.58 ± 0.53
TATATATATATATATATATATATATATATATGTATA [TGCATGCA_negctrl_site17]	9.07 ± 0.75
GTATTATTATTATGCACACAAAAATATTTATACATA [CACACA_site3656]	10.3 ± 0.46
ATATATATATAATCAAGTACACAGTAATAAAAAGAA [XGTACX_site1070]	9.06 ± 0.19
ATTGTGTTCATCAGCACACACAACATCATGCAATAA [CACACA_site6960]	8.13 ± 0.52
AATAATAACTGTAGGTGTACGTAAAAAAAAAATTAT [XGTACX_site3133]	8.22 ± 0.67
TTTTTTTTTTTTTGTTGTACAATACTTAATCATTAT [XGTACX_site3422]	8.02 ± 0.55
AAAAAAAGATTATACACACACATATATAAACCTACA [CACACA_site710]	7.65 ± 0.42
TTTTTTTTTTTTGAAACATGCATTGTTTTATTCTTA [TGCATGCA_site15]	7.99 ± 0.85
TCTATACCTATTCTTACACACATATGTATATATATA [CACACA_site563]	8.63 ± 0.46
TTTCAAAATGTGTAAAATAAAAATAATATCATTACA [TGCATGCA_negctrl_site521]	7.59 ± 0.29
ATGTGATATAAGTACACACACATATGTATATAGAAT [CACACA_site1823]	8.16 ± 0.56
AATATAGATATAACCACACACATACATCTAATTCTA [CACACA_site1760]	7.84 ± 0.57
AATGTATATATGTAATGTACATATGTAATGTATATA [XGTACX_site6509]	7.87 ± 0.37

Sequence	gcPBM binding intensity (ln)
TTTTGTTTTGTTTTGTTTTGTTTTGTTTTATTTTAT [GTGCAC_negctrl_site383]	7.61 ± 0.61
TGTTTCTTATTTTTTTCACACACTAAACATTTCAAA [CACACA_site2218]	8.22 ± 0.57
GAAAAGAACAAGAGCATGCACTTAATAAGAATAATA	7.89 ± 0.69
AATAAAAAAAGTTTTTTTTTTTTTTAAACAATAGAC [CACACA_negctrl_site1061]	7.71 ± 0.47
TATATGTTTTAAAAGTGTACTTTAGTTTCAATTTTT [XGTACX_site4269]	7.62 ± 0.47
AAGAATGTTAATAGTACACACAATTATTATATAAAT [CACACA_site3739]	7.9 ± 0.37
AAAAATTTAATGAAATGTACATATATGTTATTAATA [XGTACX_site6091]	7.66 ± 0.46
AATAACCACCAACACACACACATATATATATATATA [CACACA_site3540]	9.44 ± 0.55
ATAATAATAATAAAAAGTACATTTAATTATATAGAA [XGTACX_site7742]	7.88 ± 0.23
ATACATATTACATGTTGTACTCCAACAAAAATGCCC [XGTACX_site3201]	8.26 ± 0.13
TTAATTTCATTTTCTACACACCTATCCTTTTTTTTT [CACACA_site772]	7.67 ± 0.76
ACATCAAGAATTATTAAGAATACGGATAGATAAAAT [GTGCAC_negctrl_site261]	7.67 ± 0.75
TAAATGCACATATACACACACCCAATTTTAAGTTTT [CACACA_site7428]	9.31 ± 0.3
TATTCTCTCTTATGAACACACATTTTTATTTTCAAA [CACACA_site7554]	7.88 ± 0.45
TAAAAATATATATGATTGCACTTAGGACAATATATA	8.64 ± 0.092
GGAAACAAAAAATATATACACACTAATCATAAAAAA [CACACA_site7890]	7.76 ± 0.65
ATTAATATATTATCATGTACACAAAAATAATTTTAT [XGTACX_site7257]	8.01 ± 0.23
AAGAAAAATATATAAATAAATAAATATATAAATATA [CACACA_negctrl_site836]	7.23 ± 0.2
TAGACAAAATATAATGCACACTATTATTTTTATTTA [CACACA_site5508]	11 ± 0.73
TATTTTAATATGTATACATGCATACCTACTCATACA [TGCATGCA_site779]	7.91 ± 0.7
AACTTGTATTTATACACACACACACTGTCTTTTTTT [CACACA_site7009]	8.04 ± 0.8
TAAAATTTTATAAAGGAACACACATTTTTTTTTTTT [CACACA_site8740]	7.47 ± 0.54
AATTTAAAAATGGACACACACAAAAAATAATACTTA [CACACA_site250]	7.75 ± 0.48

Sequence	gcPBM binding intensity (ln)
AAAAAAGTTGTATTTGCACACATAAAAAAAAGATAT [CACACA_site3839]	9.85 ± 0.37
TTATAAATAAAAAATACACACATATATATATATATA [CACACA_site207]	9.34 ± 0.28
AAAAATTAACAAAAGGTGCAATTTATTTATTAACGG	10.3 ± 0.5
GTATATTATATTGGGTGTACCATATATAATATAATC [XGTACX_site8579]	7.79 ± 0.34
GGAAAAGGTATCCGTTCACACATAAATGGATACCAT [CACACA_site5072]	7.27 ± 0.71
AAAAAAAAAAAAATGTGTACATACATATATTTATAT [XGTACX_site3076]	7.895 ± 0.078
TATATATATGTATATGTGCACAGTTTTCTTATTAAA [GTGCAC_site9990]	9.86 ± 0.16
TGGGCACCCATATACACACACAAATACAATGATAAA [CACACA_site4762]	7.78 ± 0.28
AATATATTATATATATGTACATATGTGTATACATTT [XGTACX_site937]	7.92 ± 0.5
TTTTATTTATTTTATTGTACATATATAAAACTATGA [XGTACX_site3476]	7.96 ± 0.38
TCTATATAGATTTGCACACATAAAAATGCTTATATA [CACACA_site2389]	9.06 ± 0.11
ATTACATATTGATAAGTGCAAGTGTGAGAAATGTTA	8.74 ± 0.43
CAATCAAATGGACACACACACACCTAAACATAAAAG [CACACA_site5524]	8.04 ± 0.4
CTTTTTTTTTTAAATTGTACAAATGTGATGTAATAG [XGTACX_site3219]	8.04 ± 0.18
ATTAAAAAATTACAAGCATGCTTGTTAAAATTTTTT [TGCATGCA_site941]	7.42 ± 0.49
TTTTTCATTTTTAAAATAATTATAATATTATACATA [XGTACX_negctrl_site43]	7.95 ± 0.54
TAAATCAGCCATAACACACATACATATATACATAAA [CACACA_site396]	7.87 ± 0.42
TAAATATATATTATATGTACTTATATATATATATAT [XGTACX_site4448]	8.9 ± 0.3
AGCAAATAAATAAATAAATAAATAAATATATATATA [TGCATGCA_negctrl_site40]	9.31 ± 0.3
ATAATTAACAAATACACACACACACGCCCACAAAAA [CACACA_site6389]	8.39 ± 0.085
